About 16,000 (7.3%) of roughly 220,000 compounds were called active. This list was built around the results that the source calls inconclusive (neither active nor inactive); the mix of calls is not that of the screen. The call rests on the fitted dose curve; in most records, active means well fitted inhibition curve with a large enough effect (not every such curve was filed as active); inconclusive means small, poorly fitted or top-dose-only effect, or another doubt; inactive means no such curve, though single readings can be large or run the other way. Where the call is inconclusive, the potency comes from a doubtful curve fit.
Biological target: Aldehyde dehydrogenase 1A1 (Homo sapiens) (UniProt P00352)
Assay: qHTS Assay for Inhibitors of Aldehyde Dehydrogenase 1 (ALDH1A1);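 on activity, negative = inhibition: plate controls were no enzyme wells and a reference inhibitor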
Settings: Purified ALDH1A1, NADH fluorescence, propionaldehyde substrate; series mostly up to 75.3 µM; activity, negative = inhibition: at the top concentration
Potency means the concentration at half of the fitted maximal effect; tags describe the fitted curve by direction and shape.

Chain of UniProt P00352 (P00352 whole entry, looked up): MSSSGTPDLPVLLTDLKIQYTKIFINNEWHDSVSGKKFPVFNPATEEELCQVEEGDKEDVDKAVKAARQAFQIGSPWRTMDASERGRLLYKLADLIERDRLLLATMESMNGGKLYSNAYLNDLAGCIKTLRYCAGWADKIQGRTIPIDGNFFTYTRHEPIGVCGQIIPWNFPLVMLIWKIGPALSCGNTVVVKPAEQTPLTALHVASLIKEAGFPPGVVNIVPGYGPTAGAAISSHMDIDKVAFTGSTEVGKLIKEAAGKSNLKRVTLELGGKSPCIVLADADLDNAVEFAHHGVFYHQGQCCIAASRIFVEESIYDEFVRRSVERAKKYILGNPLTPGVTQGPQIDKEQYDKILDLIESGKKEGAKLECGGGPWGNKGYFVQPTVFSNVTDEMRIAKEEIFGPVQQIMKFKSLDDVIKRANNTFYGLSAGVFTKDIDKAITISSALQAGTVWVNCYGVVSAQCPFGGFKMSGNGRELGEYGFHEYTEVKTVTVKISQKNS

Potency, active:
COc1ccccc1NNC(=O)c1cccnc1Oc1ccccc1 14.1 µM

Potency, inconclusive:
COc1ccc(CN2CCN(C(=O)c3cccc(OC)c3OC)CC2)cc1OC 39.8 µM [inhibitor, single point]
Clc1ccc(-n2nnnc2-c2cnc(-c3ccccn3)nc2-c2cccs2)cc1 39.8 µM [inhibitor, single point]
COc1ccc2c(c1)c(C(=O)CN1CCN(c3ccccc3)CC1)c(C)n2C 23.8 µM [inhibitor, single point]
COc1ccc(-c2ccnc3ncnn23)cc1 31.6 µM [inhibitor, partial curve]
CCN(CC)c1ccc(C(=O)N/N=C(\C)c2cccc(OC)c2)cc1 39.8 µM [inhibitor, single point]
COc1cc(C(=O)O/N=C2/C=CC(=O)C(C)=C2C)cc(OC)c1OC 10 µM [inhibitor, partial curve, poor fit]
COc1cc(C(=O)Nc2ccc3c(c2)Cc2cc(NC(=O)c4cc(OC)c(OC)c(OC)c4)ccc2-3)cc(OC)c1OC 35.5 µM [inhibitor, single point]
COc1cc(NC(=O)CSc2nccc(C)n2)c(C(=O)O)cc1OC 31.6 µM [inhibitor, partial curve]
Cn1cccc1C(=O)NC(=O)COC(=O)c1ccccc1O 23.8 µM [inhibitor, partial curve]
CC1(OC(=O)c2ccc(Cl)nc2)C(=O)Cc2cc(-c3ccsc3)ncc2C1=O (centres undefined) 6.31 µM [inhibitor, single point]
COc1ccccc1-c1nc(SCC(=O)NCC2CCCO2)c2c(=O)n(C)c(=O)n(C)c2n1 (centres undefined) 11.2 µM [inhibitor, partial curve]
CC1CCCN(CCCOc2ccccc2-c2ccccc2)C1 (centres undefined) 39.8 µM [inhibitor, single point]

activity, negative = inhibition, inactive:
COc1ccc2c(C)cc(SC3CCOC3=O)nc2c1 (centres undefined) -15%
C=CCSc1nnc2n(CCc3ccccc3)c(=O)c3c4c(sc3n12)COC(C)(C)C4 5.08%
COC(=O)[C@@]1(Cc2ccc(OC)cc2)[C@H]2c3cc(C(=O)N(C)C)n(CCc4c[nH]c5ccc(O)cc45)c3C[C@H]2CN1C(=O)c1ccccc1 -10.3%
Cc1ccc(N(C(=O)c2ccco2)C2C=CS(=O)(=O)C2)cc1 (centres undefined) 9.94%
Cc1cccc(C)c1N1CCN(C(=O)Nc2ccc3c(c2)OCCO3)CC1 -5.95%
O=C(CNC(=O)c1cc(=O)[nH]c2ccccc12)Nc1ccc(F)c(F)c1 -11.6%

— PubChem BioAssay AID1030 (National Center for Advancing Translational Sciences (NCATS), 2008)
